# Data from the supplement of paper PMC10441789.
# The other results are listed elsewhere or left out. Antibody binding of pooled human sera (four to six donors per pool; dilution not stated) to peptides of the Trypanosoma cruzi antigen TSSA on microarrays. Quantile-normalised fluorescence in arbitrary units, mean of duplicate arrays; higher = more binding. No active / inactive call. The uninfected pools are read here as the healthy donors of the same country. The strongest signals lie near the top of the scale (about 60,000).
# Experiments:
# Assay in all cases: antibody binding signal (normalised fluorescence) (arbitrary fluorescence units); higher = stronger serum antibody binding to peptide
# [1] = test system: pooled sera of chronic Chagas disease patients, Argentina
# Protocol: (§1)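 Microarray of overlapping 15-residue peptides of the four Trypanosoma cruzi TSSA reference variants and 8- to 13-residue peptides of TSSAII 24-62, probed with one serum pool per country.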
# [2] = test system: pooled sera of chronic Chagas disease patients, Bolivia
# Protocol: as §1
# [3] = test system: pooled sera of chronic Chagas disease patients, Brazil
# Protocol: as §1
# [4] = test system: pooled sera of chronic Chagas disease patients, Colombia
# Protocol: as §1
# [5] = test system: pooled sera of chronic Chagas disease patients, Mexico
# Protocol: as §1
# [6] = test system: pooled sera of chronic Chagas disease patients, USA
# Protocol: as §1
# [7] = test system: pooled sera of uninfected people, Argentina
# Protocol: as §1
# [8] = test system: pooled sera of uninfected people, Bolivia
# Protocol: as §1
# [9] = test system: pooled sera of uninfected people, Colombia
# Protocol: as §1
# [10] = test system: pooled sera of uninfected people, Mexico
# Protocol: as §1
# [11] = test system: pooled sera of uninfected people, USA
# Protocol: as §1
Sequence,antibody binding signal [1],antibody binding signal [2],antibody binding signal [3],antibody binding signal [4],antibody binding signal [5],antibody binding signal [6],antibody binding signal [7],antibody binding signal [8],antibody binding signal [9],antibody binding signal [10],antibody binding signal [11]
LSACTTANGGSTIST,162,192,251,96.9,105,145,642,210,563,133,106
GSTSSTPPSGTENKP,52800,49900,50300,417,8750,34700,8180,892,950,598,717
SSGEAEAS,128,96.3,224,85.4,104,78.3,193,125,77.1,66,191
PGASSGEAEASS,157,113,6230,179,160,87.9,130,105,71.5,90.5,69.1
STPPSGTENK,54100,46800,52300,322,8050,40100,3400,482,725,346,443
TPSPSGASSGEAEAS,132,124,4180,89.2,408,139,249,141,77.2,92.4,275
GEAPSQPG,7410,25200,12800,176,138,1340,108,105,81.8,107,112
GSTSSTPP,281,214,319,179,189,135,227,197,98.7,107,95
STSSTPPSGTE,11400,759,9810,435,123,102,148,93.1,92.8,119,80.8
PGASSGEAEA,223,119,7070,143,121,75.2,142,83.5,94.2,78.6,62.9
GASSGEAEA,163,124,2450,137,117,64.9,145,120,135,90.3,110
GSTSSTPPSG,391,251,364,288,273,144,245,255,113,194,119
STSSTPPSGT,242,212,407,418,178,116,147,122,98,224,70.5
PSGTENKPAT,47300,38100,47600,2200,4590,15200,2430,1580,710,500,997
GEAPSQPGAS,4380,39100,9870,171,170,1560,437,1060,617,184,1270
ENKPATGEAP,46600,52200,50800,385,535,39700,961,635,179,257,265
TPPSGTENKPATGEA,46800,41600,45400,1070,3720,30700,8570,1280,542,655,729
NKPATGEAPSQP,52100,51200,58200,389,272,43400,959,647,161,262,171
EAPSQPGASSGEAEA,4470,9330,7660,103,99.6,121,197,97,97.1,84.5,70.8
PPSGTENKPA,53500,50700,49900,588,12900,29800,7490,2150,862,426,1190
TTANGGSTISTPPSG,226,266,294,145,200,159,986,214,1270,177,155
QPGASSGEAEASSNK,331,1910,8870,589,1180,1820,245,295,126,1980,1760
GTENKPATG,42200,14700,27200,3560,4970,10600,719,2420,215,301,230
NGGSTSSTPPGTDKK,5350,539,2780,12600,2710,15500,290,153,267,1690,270
ASSGEAEASS,105,107,183,453,183,85.5,146,124,89.7,94.2,95
TPPSGTEKKAAAGEA,35000,14000,27800,385,7460,1940,827,353,149,123,133
TPPSGTENKPAT,46700,51500,51100,1860,5110,30900,8550,1380,846,698,861

Sequence,antibody binding signal [1],antibody binding signal [2],antibody binding signal [3],antibody binding signal [4],antibody binding signal [5],antibody binding signal [6],antibody binding signal [7],antibody binding signal [8],antibody binding signal [9],antibody binding signal [10],antibody binding signal [11]
PATGEAPSQPGASSG,42600,50800,48200,187,258,24500,483,148,160,196,155
ANGGSTSSTP,1400,2110,1020,1260,1160,2210,230,369,159,350,328
SSTPPGTDKKTAAGG,2670,1180,6900,13200,6470,22000,164,96.9,203,1050,403
NGGSTSSTPPSGT,274,211,615,391,203,126,329,193,123,163,90.4
TSSTPPSGT,364,253,398,228,238,236,120,114,86.9,171,77.2
GEAPSQPGASSG,12500,39700,9920,112,107,1400,167,113,112,168,198
GEAPSQPGA,6760,27600,13000,110,155,1680,199,171,251,261,204
QPGASSGEAEASS,840,115,8100,143,168,143,156,161,121,94.4,106
ANGGSTSSTPPS,1170,3220,1050,4350,1190,2600,271,490,147,431,342
GSTSSTPPSGTE,13200,749,11800,167,338,100,165,119,84.5,107,58.3
GTENKPATGEAPSQP,49700,52300,53400,1170,2760,45400,1130,1560,164,245,155
SGTENKPATGEA,37200,30400,38400,227,575,22500,1310,1060,127,555,404
SQPGASSGEA,249,144,7610,136,174,92.7,136,97.7,112,196,137
SGASSGEAEASSNKN,216,2180,4030,439,1270,1420,220,219,121,1390,878
ATGEAPSQ,19300,29700,16900,464,381,17700,187,189,94.9,86.7,74.1
TENKPATGEAPSQ,47700,52300,50500,268,376,38600,852,413,152,233,194
ANGGSTISTPPSGTE,8580,1070,7380,1500,690,1410,493,204,178,195,92.8
GGSTISTPPSGTEKK,34300,4050,34300,190,12400,6880,797,297,179,127,154
NKPATGEAPSQ,52000,53600,53900,360,232,42600,1020,634,158,315,181
PSGTENKP,50900,37100,48300,1470,9360,13700,1780,959,711,430,853
TSSTPPGTDKKTAAG,3120,511,7210,16900,6100,13400,242,132,214,1650,273
TANGGSTSSTPPGTD,255,530,414,137,235,158,118,123,123,106,95.1
KKTAAGEAPSPSGAS,181,214,476,297,227,3540,253,157,365,71.4,205
PSGTENKPATGEAPS,45300,51400,52400,1030,2080,48100,2380,2030,402,549,561
PSGTENKPATG,48300,41800,46200,2610,4910,17500,2600,2740,879,726,998
PPSGTENKP,49800,46400,48600,312,8040,24600,4850,1020,727,395,892
GTPSPSGASSGEAEA,163,132,4260,197,515,191,163,134,111,83.4,152
